According to ChEMBL document CHEMBL4190388, “Discovery and Optimization of Indolyl-Containing 4-Hydroxy-2-Pyridone Type II DNA Topoisomerase Inhibitors Active against Multidrug Resistant Gram-negative Bacteria” (J Med Chem, 2018):

System: Escherichia coli
Details: BAS849

Structure (SMILES) | MIC [µg/mL]
CCNCc1cc2cc3c(cc2n1C)CCCCc1c-3[nH]c(=O)c(C(=O)O)c1O | 0.19 (≈ 0.48 µM)
CCNCc1cc2c3c(ccc2n1C)-c1[nH]c(=O)c(C(=O)O)c(O)c1CCC3 | 6.3 (≈ 16.5 µM)
CCc1c(-c2ccc3c(c2)cc(CNC(C)C)n3C)[nH]c(=O)c(C(=O)O)c1O | 0.06 (≈ 0.156 µM)
CCNCc1cc2cc3c(cc2n1C)CCCc1c-3[nH]c(=O)c(C(=O)O)c1O | 0.1 (≈ 0.262 µM)
CNCc1cc2c3c(ccc2n1C)-c1[nH]c(=O)c(C(=O)O)c(O)c1CCC3 | 6.3 (≈ 17.1 µM)
CCc1c(-c2ccc3c(c2)c(C)c(C)n3C)[nH]c(=O)c(C(=O)O)c1O | > 12.5
Cc1c(-c2ccc3c(c2)cc(CN(C)C)n3C)[nH]c(=O)c(C(=O)O)c1O | 0.39 (≈ 1.1 µM)
CCc1c(-c2ccc3c(c2)cc(C)n3C)[nH]c(=O)c(C(=O)O)c1O | 0.03 (≈ 0.0919 µM)
CC(C)c1c(-c2ccc3c(c2)cc(CN(C)C)n3C)[nH]c(=O)c(C(=O)O)c1O | 0.24 (≈ 0.626 µM)
CCc1c(-c2ccc3c(c2)cc(CNC)n3C)[nH]c(=O)c(C(=O)O)c1O | 0.13 (≈ 0.366 µM)
CNCc1cc2cc3c(cc2n1C)CCCc1c-3[nH]c(=O)c(C(=O)O)c1O | 0.19 (≈ 0.517 µM)
CCc1c(-c2ccc3c(c2)cc(CN2CCC2)n3C)[nH]c(=O)c(C(=O)O)c1O | 0.05 (≈ 0.131 µM)
CN(C)Cc1cc2cc(-c3cc(O)c(C(=O)O)c(=O)[nH]3)ccc2n1C | > 12.5
CCc1c(-c2ccc(N(C)C)cc2)[nH]c(=O)c(C(=O)O)c1O | 0.03 (≈ 0.0992 µM)
CCc1c(-c2ccc3c(c2)cc(CN(C)C)n3C)[nH]c(=O)c(C(=O)O)c1O | 0.06 (≈ 0.162 µM)
CCNCc1cc2cc(-c3[nH]c(=O)c(C(=O)O)c(O)c3CC)ccc2n1C | 0.1 (≈ 0.271 µM)
CN(C)Cc1cc2cc(-c3[nH]c(=O)c(C(=O)O)c(O)c3C3CC3)ccc2n1C | 3.1 (≈ 8.13 µM)
CCc1c(-c2ccc3c(c2)cc(CN2CCCC2)n3C)[nH]c(=O)c(C(=O)O)c1O | 0.05 (≈ 0.126 µM)
CCNCc1cc2cc3c(cc2n1C)Cc1c-3[nH]c(=O)c(C(=O)O)c1O | > 12.5
CCc1c(-c2ccc3c(ccn3C)c2)[nH]c(=O)c(C(=O)O)c1O | 0.03 (≈ 0.0961 µM)
CCc1c(-c2ccc3c(c2)cc(CNC(C)(C)C)n3C)[nH]c(=O)c(C(=O)O)c1O | 0.13 (≈ 0.327 µM)

Converted amounts (≈) assume the structure as drawn.
